B1: TEV protease; numbered along this chain (parent)
chain: MGESLFKGPRDYNPISSSICHLTNESDGHTTSLYGIGFGPFIITNKHLFRRNNGTLVVQSLHGVFKVKDTTTLQQHLVDGRDMIIIRMPKDFPPFPQKLKFREPQREERICLVTTNFQTKSMSSMVSDTSCTFPSGDGIFWKHWIQTKDGQCGSPLVSTRDGFIVGIHSASNFTNTNNYFTSVPKNFMELLTNQEAQQWVSGWRLNADSVLWGGHKVFMVKPEEPFQPVKEATQL

The variants in this experiment derive from B1. The experiment in a line: raw area under fraction-flipped curve 0-4 h after induction (AUC4h, not background-subtracted), DNA-recorder readout of cleavage of the substrate (dimensionless); higher = more cleavage of the substrate by the protease variant. Conditions: temperature: 34 °C; time window: 0-4 h after rhamnose induction. How it is done: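 In vivo DNA recorder in E. coli TOP10(DE3) ΔrhaA at 34 °C. Each TEVp single-site mutant (parent TEVp 0) is paired with a single-site variant of the 7-mer TEVs (canonical ENLYFQ|S). The substrate sits between flexible linkers in a Bxb1-sfGFP-TEVs-SsrA fusion, so cleavage stabilises Bxb1 and speeds flipping of a recombination array, read by NGS. The value is the raw area under the fraction-flipped curve over 0-4 h after rhamnose induction (AUC4h), with ≥20 reads per time point. It is not background-subtracted; inactive controls average about 0.047.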

This is one part of the list. Sequences were assembled here from the parent chain. Inactive controls read about 0.05.
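Also: Bxb1 expression induced with 0.2% (w/v) L-rhamnose at OD600 near 0.5, cultures sampled hourly, flipped fraction per protease–substrate barcode pair counted by paired-end Illumina sequencing.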

As for MGESLFKGPRDYNPISSSICHLTNESDGHTTSLYGIGFGPFIITNKHLFRRNNGTLVVQSLHGVFKVKDTTTLQQHLVDGRDMIIIRMPKDFPPFPQKLKFREPQREERICWVTTNFQTKSMSSMVSDTSCTFPSGDGIFWKHWIQTKDGQCGSPLVSTRDGFIVGIHSASNFTNTNNYFTSVPKNFMELLTNQEAQQWVSGWRLNADSVLWGGHKVFMVKPEEPFQPVKEATQL [L112W], the “area with substrate ANLYFQS” value turned out to be 0.0502, the “area with substrate CNLYFQS” value was 0.0318, the “area with substrate FNLYFQS” value stood at 0.0663 and the “area with substrate GNLYFQS” value was 0.0418. The “area with substrate HNLYFQS” value is 0.0623, the “area with substrate INLYFQS” value worked out at 0.0558, the “area with substrate KNLYFQS” value was found to be 0.0672 and the “area with substrate LNLYFQS” value was 0.045. In addition, the “area with substrate NNLYFQS” value came to 0.0596, the “area with substrate PNLYFQS” value amounted to 0.0564, the “area with substrate TNLYFQS” value was 0.0631 and the “area with substrate VNLYFQS” value came to 0.067. The “area with substrate WNLYFQS” value was determined as 0.0502.

Turning to MGESLFKGPRDYNPISSSICHLTNESDGHTTSLYGIGFGPFIITNKHLFRRNNGTLVVQSLHGVFKVKDTTTLQQHLVDGRDMIIIRMPKDFPPFPQKLKFREPQREERICNVTTNFQTKSMSSMVSDTSCTFPSGDGIFWKHWIQTKDGQCGSPLVSTRDGFIVGIHSASNFTNTNNYFTSVPKNFMELLTNQEAQQWVSGWRLNADSVLWGGHKVFMVKPEEPFQPVKEATQL [L112N], the “area with substrate ANLYFQS” value stood at 0.0642, the “area with substrate CNLYFQS” value stood at 0.0832, the “area with substrate FNLYFQS” value stood at 0.0472 and the “area with substrate GNLYFQS” value was 0.0634. The “area with substrate HNLYFQS” value came to 0.0566, the “area with substrate LNLYFQS” value amounted to 0.0592, the “area with substrate MNLYFQS” value is 0.0584 and the “area with substrate PNLYFQS” value was 0.0611. The “area with substrate SNLYFQS” value came to 0.0661, the “area with substrate TNLYFQS” value is 0.0663, the “area with substrate VNLYFQS” value was 0.0749 and the “area with substrate WNLYFQS” value is 0.0602. In addition, the “area with substrate YNLYFQS” value turned out to be 0.0529.

Regarding MGESLFKGPRDYNPISSSICHLTNESDGHTTSLYGIGFGPFIITNKHLFRRNNGTLVVQSLHGVFKVKDTTTLQQHLVDGRDMIIIRMPKDFPPFPQKLKFREPQREERICLVTTNFQTKSMSSMVSDTSCTFHSGDGIFWKHWIQTKDGQCGSPLVSTRDGFIVGIHSASNFTNTNNYFTSVPKNFMELLTNQEAQQWVSGWRLNADSVLWGGHKVFMVKPEEPFQPVKEATQL [P134H], the “area with substrate ANLYFQS” value was 0.0752, the “area with substrate CNLYFQS” value worked out at 0.0506, the “area with substrate DNLYFQS” value was found to be 0.0681 and the “area with substrate FNLYFQS” value turned out to be 0.0596. In addition, the “area with substrate HNLYFQS” value was found to be 0.0603, the “area with substrate INLYFQS” value was 0.072, the “area with substrate KNLYFQS” value turned out to be 0.0669 and the “area with substrate LNLYFQS” value is 0.0625. The “area with substrate MNLYFQS” value stood at 0.0572, the “area with substrate NNLYFQS” value amounted to 0.0682, the “area with substrate PNLYFQS” value amounted to 0.06 and the “area with substrate SNLYFQS” value was found to be 0.0756. Further, the “area with substrate TNLYFQS” value was determined as 0.062, the “area with substrate VNLYFQS” value is 0.0724 and the “area with substrate WNLYFQS” value was found to be 0.0574.

Take MGESLFKGPRDYNPISSSICHLTNESDGHTTSLYGIGFGPFIITNKHLFRRNNGTLVVQSLHGVFKVKDTTTLQQHLVDGRDMIIIRMPKDFPPFPQKLKFREPQREERICLVTTNFQTHSMSSMVSDTSCTFPSGDGIFWKHWIQTKDGQCGSPLVSTRDGFIVGIHSASNFTNTNNYFTSVPKNFMELLTNQEAQQWVSGWRLNADSVLWGGHKVFMVKPEEPFQPVKEATQL [K120H]: the “area with substrate ANLYFQS” value turned out to be 0.0736, the “area with substrate DNLYFQS” value was 0.0867, the “area with substrate GNLYFQS” value stood at 0.0665 and the “area with substrate LNLYFQS” value amounted to 0.0481. Also, the “area with substrate MNLYFQS” value turned out to be 0.0652, the “area with substrate QNLYFQS” value stood at 0.0643 and the “area with substrate SNLYFQS” value came out at 0.0679.

In the case of MGESLFKGPRDYNPISSSICHLTNESDGHTTSLYGIGFGPFIITNKHLFRRNNGTLVVQSLHGVFKVKDTTTLQQHLVDGRDMIIIRMPKDFPPFPQKLKFREPQREERICLVTTNFQTKSMSSMVSDTSCTFPSWDGIFWKHWIQTKDGQCGSPLVSTRDGFIVGIHSASNFTNTNNYFTSVPKNFMELLTNQEAQQWVSGWRLNADSVLWGGHKVFMVKPEEPFQPVKEATQL [G136W], the “area with substrate ANLYFQS” value is 0.0707, the “area with substrate GNLYFQS” value was determined as 0.0619, the “area with substrate HNLYFQS” value was 0.0578 and the “area with substrate INLYFQS” value was 0.066. Further, the “area with substrate KNLYFQS” value is 0.0838, the “area with substrate LNLYFQS” value stood at 0.0591, the “area with substrate MNLYFQS” value turned out to be 0.0449 and the “area with substrate QNLYFQS” value is 0.0709. In addition, the “area with substrate SNLYFQS” value turned out to be 0.0494, the “area with substrate TNLYFQS” value is 0.0625, the “area with substrate VNLYFQS” value came out at 0.0537 and the “area with substrate WNLYFQS” value stood at 0.0573. For the same variant, the “area with substrate YNLYFQS” value was 0.0597.

On to MGESLFKGPRDYNPISSSICHLTNESDGHTTSLYGIGFGPFIITNKHLFRRNNGTLVVQSLHGVFKVKDTTTLQQHLVDGRDMIIIRMPKDFPPFPQKLKFREPQREERICLVTTNFQTKSMSSMVSMTSCTFPSGDGIFWKHWIQTKDGQCGSPLVSTRDGFIVGIHSASNFTNTNNYFTSVPKNFMELLTNQEAQQWVSGWRLNADSVLWGGHKVFMVKPEEPFQPVKEATQL [D128M], for which the “area with substrate ANLYFQS” value is 0.078, the “area with substrate CNLYFQS” value was 0.0864, the “area with substrate DNLYFQS” value amounted to 0.0407 and the “area with substrate GNLYFQS” value came to 0.0947. For the same variant, the “area with substrate HNLYFQS” value was determined as 0.0838, the “area with substrate INLYFQS” value amounted to 0.0892, the “area with substrate KNLYFQS” value is 0.0675 and the “area with substrate LNLYFQS” value was determined as 0.0873. Moreover, the “area with substrate MNLYFQS” value was 0.0537, the “area with substrate NNLYFQS” value was determined as 0.115, the “area with substrate PNLYFQS” value amounted to 0.0799 and the “area with substrate SNLYFQS” value came to 0.0831. Moreover, the “area with substrate TNLYFQS” value was found to be 0.0907, the “area with substrate VNLYFQS” value worked out at 0.076, the “area with substrate WNLYFQS” value is 0.0441 and the “area with substrate YNLYFQS” value was 0.0729.

Take MGESLFKGPRDYNPISSSICHLTNESDGHTTSLYGIGFGPFIITNKHLFRRNNGTLVVQSLHGVFKVKDTTTLQQHLVDGRDMIIIRMPKDFPPFPQKLKFREPQREERICLVTTNFQTKSMSSMVSCTSCTFPSGDGIFWKHWIQTKDGQCGSPLVSTRDGFIVGIHSASNFTNTNNYFTSVPKNFMELLTNQEAQQWVSGWRLNADSVLWGGHKVFMVKPEEPFQPVKEATQL [D128C]: the “area with substrate ANLYFQS” value was determined as 0.0723, the “area with substrate CNLYFQS” value turned out to be 0.0864, the “area with substrate DNLYFQS” value worked out at 0.101 and the “area with substrate FNLYFQS” value amounted to 0.061. Besides, the “area with substrate GNLYFQS” value is 0.12, the “area with substrate HNLYFQS” value amounted to 0.0815, the “area with substrate INLYFQS” value was 0.0521 and the “area with substrate KNLYFQS” value came to 0.0617. The “area with substrate LNLYFQS” value came out at 0.0633, the “area with substrate MNLYFQS” value turned out to be 0.013, the “area with substrate NNLYFQS” value was determined as 0.0635 and the “area with substrate PNLYFQS” value was determined as 0.0568. The “area with substrate SNLYFQS” value turned out to be 0.0899, the “area with substrate TNLYFQS” value was determined as 0.0784, the “area with substrate VNLYFQS” value was 0.0841 and the “area with substrate WNLYFQS” value amounted to 0.058. The “area with substrate YNLYFQS” value came out at 0.0487.

As to MGESLFKGPRDYNPISSSICHLTNESDGHTTSLYGIGFGPFIITNKHLFRRNNGTLVVQSLHGVFKVKDTTTLQQHLVDGRDMIIIRMPKDFPPFPQKLKFREPQREERICLVTTNFQTKSMSSMVSFTSCTFPSGDGIFWKHWIQTKDGQCGSPLVSTRDGFIVGIHSASNFTNTNNYFTSVPKNFMELLTNQEAQQWVSGWRLNADSVLWGGHKVFMVKPEEPFQPVKEATQL [D128F], the “area with substrate ANLYFQS” value amounted to 0.0995, the “area with substrate HNLYFQS” value is 0.0813, the “area with substrate KNLYFQS” value worked out at 0.0925 and the “area with substrate LNLYFQS” value was 0.0575. Moreover, the “area with substrate MNLYFQS” value came out at 0.071, the “area with substrate NNLYFQS” value was 0.0923, the “area with substrate PNLYFQS” value was 0.1 and the “area with substrate SNLYFQS” value is 0.0818. Besides, the “area with substrate TNLYFQS” value was found to be 0.0716, the “area with substrate WNLYFQS” value was found to be 0.0608 and the “area with substrate YNLYFQS” value was determined as 0.0936.

In the case of MGESLFKGPRDYNPISSSICHLTNESDGHTTSLYGIGFGPFIITNKHLFRRNNGTLVVQSLHGVFKVKDTTTLQQHLVDGRDMIIIRMPKDFPPFPQKLKFREPQREERICLVTTNFQTKSMSSMVSKTSCTFPSGDGIFWKHWIQTKDGQCGSPLVSTRDGFIVGIHSASNFTNTNNYFTSVPKNFMELLTNQEAQQWVSGWRLNADSVLWGGHKVFMVKPEEPFQPVKEATQL [D128K], the “area with substrate ANLYFQS” value came out at 0.0457, the “area with substrate DNLYFQS” value amounted to 0.0857, the “area with substrate FNLYFQS” value came out at 0.0486 and the “area with substrate GNLYFQS” value amounted to 0.0679. For the same variant, the “area with substrate HNLYFQS” value came to 0.0416, the “area with substrate MNLYFQS” value was 0.0646, the “area with substrate NNLYFQS” value was 0.0439 and the “area with substrate PNLYFQS” value turned out to be 0.0669.

Regarding MGESLFKGPRDYNPISSSICHLTNESDGHTTSLYGIGFGPFIITNKHLFRRNNGTLVVQSLHGVFKVKDTTTLQQHLVDGRDMIIIRMPKDFPPFPQKLKFREPQREERICLVTTNNQTKSMSSMVSDTSCTFPSGDGIFWKHWIQTKDGQCGSPLVSTRDGFIVGIHSASNFTNTNNYFTSVPKNFMELLTNQEAQQWVSGWRLNADSVLWGGHKVFMVKPEEPFQPVKEATQL [F117N], the “area with substrate ANLYFQS” value was found to be 0.0655, the “area with substrate CNLYFQS” value is 0.0772, the “area with substrate DNLYFQS” value was determined as 0.0849 and the “area with substrate HNLYFQS” value was 0.0629. In addition, the “area with substrate LNLYFQS” value worked out at 0.0638, the “area with substrate MNLYFQS” value came to 0.0696, the “area with substrate NNLYFQS” value is 0.0411 and the “area with substrate PNLYFQS” value was determined as 0.0649. Besides, the “area with substrate SNLYFQS” value was 0.0554 and the “area with substrate WNLYFQS” value is 0.0592.

The values are drawn from the supplement of paper PMC12217912.
